In article PMC4336329 (PLoS ONE, 2015):
Screen size: about 310,000 compounds; about 2,200 (0.71%) showed an effect of 50% or more. The effect is printed as a negative number. The list shows a part of the results.

These molecules were tested against human ether-à-go-go-related gene (hERG) potassium channel (human, UniProt Q12809) (assay: primary screen, population patch clamp on CHO cells stably expressing hERG).
Sequence of human ether-à-go-go-related gene (hERG) potassium channel (Q12809 whole entry, looked up): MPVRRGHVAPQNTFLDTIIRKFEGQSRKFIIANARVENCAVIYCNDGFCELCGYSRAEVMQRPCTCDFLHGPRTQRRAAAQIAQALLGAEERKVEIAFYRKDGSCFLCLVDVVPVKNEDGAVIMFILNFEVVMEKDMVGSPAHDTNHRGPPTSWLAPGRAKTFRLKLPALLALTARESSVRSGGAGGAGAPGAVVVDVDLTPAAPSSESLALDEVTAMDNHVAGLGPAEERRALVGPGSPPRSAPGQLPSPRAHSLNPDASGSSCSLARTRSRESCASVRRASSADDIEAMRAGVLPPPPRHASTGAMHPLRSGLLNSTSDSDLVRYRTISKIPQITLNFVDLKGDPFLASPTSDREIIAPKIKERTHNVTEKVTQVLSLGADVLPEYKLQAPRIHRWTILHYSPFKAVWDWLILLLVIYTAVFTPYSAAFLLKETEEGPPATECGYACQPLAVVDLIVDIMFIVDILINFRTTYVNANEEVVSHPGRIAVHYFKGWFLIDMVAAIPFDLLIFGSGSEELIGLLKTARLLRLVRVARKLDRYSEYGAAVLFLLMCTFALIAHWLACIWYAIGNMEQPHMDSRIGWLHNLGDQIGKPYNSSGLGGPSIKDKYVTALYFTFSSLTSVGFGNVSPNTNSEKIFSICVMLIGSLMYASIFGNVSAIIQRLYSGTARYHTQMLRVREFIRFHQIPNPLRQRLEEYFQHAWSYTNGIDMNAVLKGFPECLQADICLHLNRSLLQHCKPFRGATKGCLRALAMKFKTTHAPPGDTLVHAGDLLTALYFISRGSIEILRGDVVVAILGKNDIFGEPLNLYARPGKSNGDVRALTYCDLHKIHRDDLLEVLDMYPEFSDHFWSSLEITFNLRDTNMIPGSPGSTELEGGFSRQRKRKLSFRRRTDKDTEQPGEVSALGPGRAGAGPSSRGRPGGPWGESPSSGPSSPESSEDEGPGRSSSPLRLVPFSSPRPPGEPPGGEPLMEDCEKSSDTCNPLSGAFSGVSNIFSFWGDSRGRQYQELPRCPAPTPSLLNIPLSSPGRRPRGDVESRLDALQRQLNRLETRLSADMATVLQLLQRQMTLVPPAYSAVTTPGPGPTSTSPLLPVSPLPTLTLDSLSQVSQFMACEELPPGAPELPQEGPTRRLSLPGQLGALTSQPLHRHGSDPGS
In the case of CSc1cc(N2CCOCC2)nc(-c2ccccc2Cl)n1, the “hERG current change (%, negative = inhibition) at 1uM” value is reported as 8.07%.
COc1ccccc1CN1CCN(Cc2ccc3ccccc3c2)CC1.O=C(O)C(=O)O was tested, and the “hERG current change (%, negative = inhibition) at 1uM” value was -6.96%.
In the case of O=C(c1ccc2c(=O)n(Cc3ccc4c(c3)OCO4)c(=S)[nH]c2c1)N1CCC2(CC1)OCCO2, the “hERG current change (%, negative = inhibition) at 1uM” value is reported as -5.09%.
CCCCCOc1ccc(C)cc1CN(CCCl)CCCl.Cl was tested, and the “hERG current change (%, negative = inhibition) at 1uM” value was 12%.
With CC(=O)NC(CC(=O)NCC(=O)Nc1ccc(F)c(F)c1)c1ccccc1 (stereo not shown) the “hERG current change (%, negative = inhibition) at 1uM” value was 13.5%.
Cc1cc(C)c(S(=O)(=O)NCCOc2ccccc2)c(C)c1-n1cnnn1 was tested, and the “hERG current change (%, negative = inhibition) at 1uM” value was 7.17%.
Cc1cc(NC(=O)Cn2c(=O)c3c(ncn3CCC(C)C)n(Cc3ccccc3)c2=O)no1 was tested, and the “hERG current change (%, negative = inhibition) at 1uM” value was -1.6%.
With O=C(Cc1cccs1)Nc1ccc(F)cc1F the “hERG current change (%, negative = inhibition) at 1uM” value was 11.5%.
O=C(NC(=S)N1CCCCC1c1cccnc1)c1ccc(F)cc1 (stereo not shown) was tested, and the “hERG current change (%, negative = inhibition) at 1uM” value was 4.92%.
O=C(CSc1nnc(CNC(=O)c2ccccc2F)o1)NCCc1ccccc1 was tested, and the “hERG current change (%, negative = inhibition) at 1uM” value was 7.81%.
With Clc1ccccc1OCCn1nnc2ccccc21 the “hERG current change (%, negative = inhibition) at 1uM” value was 11.5%.
For O=C1OCCN1CCNCc1cn(-c2ccc(F)cc2)nc1-c1ccccc1Cl, the “hERG current change (%, negative = inhibition) at 1uM” value was -3.06%.
With COC(=O)CSc1nnnn1-c1ccccc1 the “hERG current change (%, negative = inhibition) at 1uM” value was 17.7%.
In the case of O=C(COC(=O)c1cc(S(=O)(=O)N2CCOCC2)ccc1O)NCCc1ccccc1, the “hERG current change (%, negative = inhibition) at 1uM” value is reported as 5.85%.
CC(=N/O)/C(C)=N\NC(=O)c1ccccn1 was tested, and the “hERG current change (%, negative = inhibition) at 1uM” value was 12.4%.
With Cc1ccccc1NC(=O)c1ccccc1 the “hERG current change (%, negative = inhibition) at 1uM” value was 1.48%.
Fc1cccc(Cl)c1/C=N/Nc1c(Cl)cncc1Cl was tested, and the “hERG current change (%, negative = inhibition) at 1uM” value was 6.26%.
For Cc1cc(NCc2ccccc2)c2ccccc2n1.Cl, the “hERG current change (%, negative = inhibition) at 1uM” value was -29.5%.
In the case of O=C(CN(c1ccccc1)S(=O)(=O)c1ccc(F)cc1)NC1CCCCCC1, the “hERG current change (%, negative = inhibition) at 1uM” value is reported as -5%.
With CCOc1cc(C)c(S(=O)(=O)Nc2ccc(F)cc2)cc1C the “hERG current change (%, negative = inhibition) at 1uM” value was -1.66%.
With N#CC1=C(N)SC(N)=C(C#N)C1CCC1CCCCC1 the “hERG current change (%, negative = inhibition) at 1uM” value was 6.56%.
CC(Nc1cccc2ccccc12)C(=O)N/N=C/c1ccc([N+](=O)[O-])cc1 (stereo not shown) was tested, and the “hERG current change (%, negative = inhibition) at 1uM” value was 2.64%.
For Cc1nn(Cc2cccc(C(=O)Nc3ccn(Cc4ccccc4)n3)c2)c(C)c1[N+](=O)[O-], the “hERG current change (%, negative = inhibition) at 1uM” value was -0.602%.
In the case of O=C1c2cccc3cccc(c23)C(=O)N1Cc1cccnc1, the “hERG current change (%, negative = inhibition) at 1uM” value is reported as 3.02%.
CCCC(=O)Nc1nc(C)c(-c2csc(Nc3ccccc3OC)n2)s1 was tested, and the “hERG current change (%, negative = inhibition) at 1uM” value was 11.5%.
For CCOC(=O)c1c(NC(=O)CSc2nnc(C)s2)sc2c1CCCCC2, the “hERG current change (%, negative = inhibition) at 1uM” value was 13.1%.
For CCOc1ccc(CCNC(=O)COC(=O)c2ccc(C)c([N+](=O)[O-])c2)cc1OCC, the “hERG current change (%, negative = inhibition) at 1uM” value was 2.16%.
COC(=O)c1cc(-c2c(C)oc3cc(OC(C)C)ccc3c2=O)c(C)o1 was tested, and the “hERG current change (%, negative = inhibition) at 1uM” value was 3.43%.
In the case of OCC1(Cc2ccc(Cl)cc2)CCN(Cc2ccc(Oc3ncccn3)cc2)CC1, the “hERG current change (%, negative = inhibition) at 1uM” value is reported as -25.1%.
For COc1ccc(SC[C@H](Cc2ccccc2)N2CCN(CCc3ccccc3)CCC2=O)cc1, the “hERG current change (%, negative = inhibition) at 1uM” value was -43.2%.
With Nc1ccccc1NC(=O)NC(=O)c1ccccc1 the “hERG current change (%, negative = inhibition) at 1uM” value was 11.8%.
With CC1=[N+](C)c2ccc3ccccc3c2C1(C)C the “hERG current change (%, negative = inhibition) at 1uM” value was 3.87%.
For COC(=O)c1ccc(Cl)c(NC(=O)CN2CCOCC2)c1, the “hERG current change (%, negative = inhibition) at 1uM” value was 8.67%.
In the case of CNCC(O)Cn1c(C(F)(F)F)nc2ccccc21 (stereo not shown), the “hERG current change (%, negative = inhibition) at 1uM” value is reported as 15.9%.
With CCC(C(=O)OCC(=O)Nc1cccc(OC)c1)c1ccccc1 (stereo not shown) the “hERG current change (%, negative = inhibition) at 1uM” value was 6.9%.
With CC(C)NC(=O)C1CC(=O)N(c2ccc(F)c(Cl)c2)C1 (stereo not shown) the “hERG current change (%, negative = inhibition) at 1uM” value was 5.09%.
Cc1nc(SCCO)c2oc3ccccc3c2n1 was tested, and the “hERG current change (%, negative = inhibition) at 1uM” value was 15.1%.
In the case of COc1cccc(NC(=S)N(CCc2c(C)[nH]c3ccccc23)Cc2ccco2)c1, the “hERG current change (%, negative = inhibition) at 1uM” value is reported as 7.94%.
For CCOc1ccc(C(=O)CN2CCN(S(=O)(=O)c3ccc(Cl)cc3)CC2)cc1, the “hERG current change (%, negative = inhibition) at 1uM” value was -10.4%.
For O=S(=O)(NCc1ccco1)c1ccc2ccccc2c1, the “hERG current change (%, negative = inhibition) at 1uM” value was 6.47%.
In the case of COC(=O)C1=C(O)/C(=C\c2cc(C)n(-c3ccccc3C)c2C)N=C1C, the “hERG current change (%, negative = inhibition) at 1uM” value is reported as 11.9%.
For COc1cccc2c(C)cc(N3CCCCCC3)nc12, the “hERG current change (%, negative = inhibition) at 1uM” value was -14.6%.
For CCOC(=O)c1c(NC(=O)CSc2nnc(-c3ccc(OC)cc3)o2)sc2c1CCC2, the “hERG current change (%, negative = inhibition) at 1uM” value was 4.23%.
In the case of O=C(C(Cc1ccccc1)N1C(=O)c2ccccc2C1=O)N1c2ccccc2CCc2ccccc21 (stereo not shown), the “hERG current change (%, negative = inhibition) at 1uM” value is reported as 7.57%.
In the case of CC(C)Oc1ccccc1C(=O)NC(CO)C(=O)O (stereo not shown), the “hERG current change (%, negative = inhibition) at 1uM” value is reported as 18.7%.
For Cc1ccc(-n2c3nc(=O)[nH]c(=O)c-3cc3c(C)nn(-c4ccccc4)c32)c(C)c1, the “hERG current change (%, negative = inhibition) at 1uM” value was 16.2%.
For CCN(C(=O)COC(=O)c1ccc(=O)n(Cc2ccccc2)n1)C1CCCCC1, the “hERG current change (%, negative = inhibition) at 1uM” value was 9.55%.
With CCOc1cccc(N)c1 the “hERG current change (%, negative = inhibition) at 1uM” value was 8.49%.
In the case of COC(=O)c1sccc1NC(=O)c1c(Cl)cccc1Cl, the “hERG current change (%, negative = inhibition) at 1uM” value is reported as 17.3%.
CC1Cn2c(COc3ccccc3)nnc2S1 (stereo not shown) was tested, and the “hERG current change (%, negative = inhibition) at 1uM” value was 6.3%.
Cc1cccc(-n2c(CNC(=O)c3ccccc3)nnc2SCC(=O)Nc2nccs2)c1 was tested, and the “hERG current change (%, negative = inhibition) at 1uM” value was 16.6%.
With CC1=CC(C)C(COC(=O)CN2CCCCC2)C(C)C1 (stereo not shown) the “hERG current change (%, negative = inhibition) at 1uM” value was 9.9%.
For Cc1nnc(NC(=O)CSc2ccc([N+](=O)[O-])cn2)s1, the “hERG current change (%, negative = inhibition) at 1uM” value was 2.7%.
In the case of O=C(Nc1ccc(Cl)cc1)N1CCCN(c2ccc(C(F)(F)F)cc2[N+](=O)[O-])CC1, the “hERG current change (%, negative = inhibition) at 1uM” value is reported as 9.25%.
N#CC1=C(N)C(C#N)(C#N)C(c2cccnc2)C2CN(C(=O)OCc3ccccc3)CC=C12 (stereo not shown) was tested, and the “hERG current change (%, negative = inhibition) at 1uM” value was 3.56%.
With CCOC(=O)C1CCN(c2nc3ccccc3nc2C(C#N)C(=O)OC(C)COC)CC1 (stereo not shown) the “hERG current change (%, negative = inhibition) at 1uM” value was 0.363%.
With Cc1nc2ccc(NC(=O)CS(=O)(=O)c3ccccc3)cc2s1 the “hERG current change (%, negative = inhibition) at 1uM” value was 16.6%.
With NS(=O)(=O)c1ccc(N=Nc2c(O)[nH]c(=S)[nH]c2=O)cc1 the “hERG current change (%, negative = inhibition) at 1uM” value was 16.8%.
